Laboratory results as given in article PMC4336329 (PLoS ONE, 2015).
Screen size: about 310,000 compounds; about 2,200 (0.71%) showed an effect of 50% or more. The effect is printed as a negative number. This is one part of the list.

target: human ether-à-go-go-related gene (hERG) potassium channel (human, UniProt Q12809); assay: primary screen, population patch clamp on CHO cells stably expressing hERG
Sequence (Q12809 whole entry, looked up): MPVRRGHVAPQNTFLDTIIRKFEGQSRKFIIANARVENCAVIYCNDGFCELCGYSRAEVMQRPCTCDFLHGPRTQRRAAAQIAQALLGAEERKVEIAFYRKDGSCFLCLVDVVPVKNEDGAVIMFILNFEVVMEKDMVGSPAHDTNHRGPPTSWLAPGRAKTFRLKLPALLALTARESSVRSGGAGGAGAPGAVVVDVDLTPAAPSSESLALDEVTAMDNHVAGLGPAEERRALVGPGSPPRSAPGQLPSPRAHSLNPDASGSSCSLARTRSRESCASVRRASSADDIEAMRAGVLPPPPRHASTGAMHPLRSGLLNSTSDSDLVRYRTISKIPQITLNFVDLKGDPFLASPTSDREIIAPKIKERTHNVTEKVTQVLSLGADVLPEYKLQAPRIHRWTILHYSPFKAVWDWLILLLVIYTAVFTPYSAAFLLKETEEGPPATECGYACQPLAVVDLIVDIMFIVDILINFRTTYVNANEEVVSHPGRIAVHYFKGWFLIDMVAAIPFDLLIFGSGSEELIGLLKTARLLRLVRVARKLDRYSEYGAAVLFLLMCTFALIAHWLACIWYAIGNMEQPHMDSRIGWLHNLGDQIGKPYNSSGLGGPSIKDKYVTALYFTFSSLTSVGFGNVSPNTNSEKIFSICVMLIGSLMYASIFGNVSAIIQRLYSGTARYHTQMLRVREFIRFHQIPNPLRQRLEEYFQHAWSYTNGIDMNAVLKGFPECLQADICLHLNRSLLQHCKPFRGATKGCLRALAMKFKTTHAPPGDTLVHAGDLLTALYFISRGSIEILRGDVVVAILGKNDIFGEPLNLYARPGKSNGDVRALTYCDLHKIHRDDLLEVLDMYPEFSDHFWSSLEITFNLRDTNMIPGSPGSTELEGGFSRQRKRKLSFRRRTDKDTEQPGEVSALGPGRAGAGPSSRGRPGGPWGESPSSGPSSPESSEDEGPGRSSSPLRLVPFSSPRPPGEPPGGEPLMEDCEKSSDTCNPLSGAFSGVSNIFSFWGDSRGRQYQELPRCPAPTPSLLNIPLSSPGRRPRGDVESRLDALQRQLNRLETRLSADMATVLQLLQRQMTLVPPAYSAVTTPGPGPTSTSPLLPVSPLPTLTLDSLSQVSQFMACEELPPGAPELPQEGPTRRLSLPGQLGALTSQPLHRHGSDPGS

| Compound | hERG current change (%, negative = inhibition) at 1uM [%] |
| --- | --- |
| O=C(O)CCc1ccc(-c2ccccc2)n1-c1cccc(C(=O)O)c1 | 15.2 |
| Cc1[nH]c2ccccc2c1C(=O)CN1CCC(C(N)=O)(N2CCCCC2)CC1 | 15.4 |
| COc1ccc(S(=O)(=O)Nc2cccc(F)c2)cc1C | 12.3 |
| CCn1cc(C(=O)NCCc2ccccc2)c(=O)c2cc(S(=O)(=O)N(C)C)ccc21 | 2.83 |
| CN(C)c1ccc(C2(c3ccc(N(C)C)cc3)OC(=O)c3cc(N)ccc32)cc1 | 14.6 |
| Cc1ccc(N2CC(C(=O)Nc3ccc(S(=O)(=O)N4CCOCC4)cc3)CC2=O)cc1Cl (stereo not drawn) | 7.84 |
| CSc1cccc(CN2CCN(CCc3ccccc3)C(CCO)C2)c1 (stereo not drawn) | -45.3 |
| Cc1nn(CC(=O)N2CCN(Cc3ccccc3)CC2)c(=O)c2ccccc12 | 6.6 |
| CC(=O)c1ccc(C(=O)Nc2ccc(N3CCOCC3)cc2)cc1 | 13.6 |
| O=Cc1cn(Cc2ccccc2F)c2ccccc12 | 15 |
| CC1CCN(C(=O)CSc2nnc(-c3ccco3)o2)CC1 | -7.81 |
| Cc1nc2ccccc2c(=O)n1NCc1cc(Br)cs1 | -2.72 |
| O=C(CSc1nnc(Cc2cccs2)n1-c1ccc(Cl)cc1)NCc1ccc2c(c1)OCO2 | -5.23 |
| COc1ccc(COC(=O)c2ccc(S(=O)(=O)N3CCC(C)CC3)cc2)cc1 | 11.8 |
| CC(C)(C)N1C(=O)[C@H]2[C@@H](c3ccc(Br)cc3)N3C(=O)N(c4cccc(Cl)c4)C(=O)[C@@]3(C)[C@H]2C1=O | 11.2 |
| CCN(CC)CCCn1c(=S)[nH]c2ncccc2c1=O | 4.46 |
| Cc1ccc(C)c(SCC(=O)Nc2ccc(S(=O)(=O)Nc3ncccn3)cc2)c1 | 12.7 |
| O=C(CSc1nc(-c2ccc(F)cc2)nc2ccc(F)cc12)Nc1cccc(C(=O)O)c1 | 19.8 |
| CC(C)C(=O)N1CCN(c2nc(-c3ccc(Cl)cc3)cs2)CC1 | -69.6 |
| CNC(=O)NC(=O)C(OC(=O)CCNS(=O)(=O)c1ccccc1)c1ccccc1 (stereo not drawn) | 8.02 |
| O=S(Cc1ccc(Cl)cc1)CC(O)COc1ccc(Cl)cc1 (stereo not drawn) | 13.2 |
| Nc1nc(-c2ccc(Cl)cc2)nn1C(=O)c1ccco1 | 15.6 |
| O=C(Nc1cccc(Cl)c1N1CCOCC1)c1ccco1 | 4.55 |

| Compound | hERG current change (%, negative = inhibition) at 1uM [%] |
| --- | --- |
| CC(C)Cc1nc2sc3c(=O)[nH]cnc3c2c2c1CCCC2 | 5.52 |
| N#Cc1c(-c2ccccc2)nc(SCC(=O)NC2CCCCC2)[nH]c1=O | 5.58 |
| Cc1ccc(S(=O)(=O)N2CCOCC2)cc1C(=O)N1CCCC1 | 10.8 |
| O=C(Nc1ccc(C(=O)N2CCOCC2)cc1)Nc1cccc(C(F)(F)F)c1 | 7.27 |
| COC(=O)c1ccsc1NC(=O)CN1CCN(Cc2ccc3c(c2)OCO3)CC1 | -59.7 |
| CC(=O)N1CCOc2ccc(S(=O)(=O)NCc3ccc(F)cc3)cc21 | -2.95 |
| CC1(C)CC(=S)Nc2ccccc2S1 | -1.98 |
| COc1ccc(N(C(=O)c2ccco2)C(C(=O)NC2CCCC2)c2ccncc2)cc1 (stereo not drawn) | 7.97 |
| O=C(C1CCCCC1)N1CCC(c2nc3ccccc3[nH]2)CC1 | 1.06 |
| O=C(O)CCC(=O)Nc1ccccc1Oc1ccccc1 | 9.48 |
| CC1CCCN(c2nc3ccccc3nc2C(C#N)S(=O)(=O)c2ccccc2)C1 (stereo not drawn) | 7.74 |
| CCCSc1nnc(C(C)C)n1N | 4.59 |
| O=C(C1CCCO1)N1CCC(O)(c2ccccc2)CC1 (stereo not drawn) | 20.8 |
| COc1ccc(CNC(=O)CCCn2nc(C)c3c(C)n(-c4ccc(C)cc4)nc3c2=O)cc1 | 6.87 |
| O=C(O)c1cc(S(=O)(=O)Nc2ccc3cn[nH]c3c2)ccc1Br | 8.13 |
| CCCOc1ccccc1NC(=O)c1ccc([N+](=O)[O-])cc1 | 7.8 |
| CCCOC(=O)c1ccc(N2C(=O)c3ccccc3C2=O)cc1 | 13.5 |
| C=CCN(C(=O)c1csnn1)C(C(=O)NCc1ccc(F)cc1)c1cccs1 (stereo not drawn) | 9.61 |
| C=C(C)CC(Nc1ccc(OC)cc1)c1ccco1 (stereo not drawn) | 15.5 |
| Cl.O=C1CN2Cc3c(ccc(Cl)c3Cl)N=C2N1 | 0.492 |
| C=CCOC(=O)C1=C(C)NC(=S)NC1/C=C/c1ccccc1 (stereo not drawn) | 3.17 |
| CCOc1cccc(C(=O)Nc2cccc(C(=O)NC(C)(C)C)c2)c1 | 1.03 |
| CC(C(=O)O)n1c(C(F)(F)F)nc2ccccc21 (stereo not drawn) | 2.07 |

| Compound | hERG current change (%, negative = inhibition) at 1uM [%] |
| --- | --- |
| Cc1ccc2c(C)c(C(=O)N(C)Cc3ccncn3)oc2c1C | 18.9 |
| C=CCc1cc(OC)ccc1OCCOCCN1CCc2ccccc2C1.O=C(O)C(=O)O | 3.59 |
| CCN(CC)CCNS(=O)(=O)c1ccc(OC)c(Br)c1 | 3.81 |
| Cc1cccc(NC(=O)c2cc(Cl)nc3ccccc23)c1 | 9.39 |
| O=C(O)Cc1c(C(=O)O)nnn1-c1ccc(Cl)cc1Cl | 7.31 |
| Cl.OC(CCCCN1CCCCC1)c1ccccc1 (stereo not drawn) | 5.51 |
| O=C(CNC(=O)C1CCCCC1)Nc1cc(Cl)ccc1Cl | 1.54 |
| O=C(O)C[C@H]1c2cc(C(F)(F)F)ccc2S(=O)(=O)N1C1CCCC1 | 17.1 |
| CC(=O)c1cc2c(cc1NC(=O)CCC1CCCC1)OCO2 | 9.55 |
| O=S(CC1CC1(Cl)Cl)CC1CC1(Cl)Cl (stereo not drawn) | 3.59 |
| O=C(CNC(=O)c1nc[nH]c1C(=O)NCC(=O)OCc1ccccc1)OCc1ccccc1 | 10.3 |
| CN1c2ccc(Cl)cc2C(=O)NC1c1ccc([N+](=O)[O-])s1 (stereo not drawn) | -5.04 |
| CCCN(CCC)C(=O)Cn1c(=O)n(CCCCCC(=O)Nc2ccccc2)c(=O)c2sccc21 | -0.0623 |
| Cc1nc(-c2ccc(Cl)cc2)sc1C1(C)CC(c2ccc(Cl)cc2)=NO1 (stereo not drawn) | 20.3 |
| CCOC(=O)CNC(=O)CSc1nnnn1-c1cc(C)ccc1C | 14.2 |
| Cc1cc(/C=C2\SC(=S)N(Cc3ccco3)C2=O)c(C)n1-c1ccccc1 | 11 |
| CC(=O)OC1CC(C)(C)N(OC(=O)CCCN2C(=O)c3ccccc3C2=O)C(C)(C)C1 | 1.29 |
| CC(C)(C)OC(=O)N1CCCN(C(=O)Nc2cccc(Cl)c2)CC1 | 4.94 |
| Cc1ccc2c(c1)N(CC(=O)N1CCCc3ccccc31)C(=O)C(C)O2 (stereo not drawn) | -4.43 |
| CC(=O)Nc1nc(-c2cccs2)cs1 | 5.44 |
| O=C(c1ccc(NC(=S)NCc2ccco2)cc1)N1CCOCC1 | 3.41 |
| Cc1c(Cl)cccc1N(CC(=O)NC1CCCCC1)S(C)(=O)=O | 15.2 |
| Cc1ccccc1C(=O)Nc1ccnn1C1CCN(C(=O)c2ccoc2)CC1 | 18.3 |

| Compound | hERG current change (%, negative = inhibition) at 1uM [%] |
| --- | --- |
| O=C(CCCn1c(=O)c2sccc2n(Cc2ccc(F)cc2)c1=O)NCc1ccco1 | -0.82 |
| CCN(CC)CCN1C(=O)C(=O)/C(=C(/O)c2c(C)[nH]c(C(=O)OC)c2C)C1c1cccnc1 (stereo not drawn) | 13.6 |
| Cn1c(=O)n(C)c2cc3[nH]cnc3cc21 | 3.46 |
| COc1ccc(NC(=O)CSc2nncn2C)cc1OC | 4.77 |
| COC(=O)CCC(=O)Nc1cccc2ccccc12 | 12.5 |
| CC1(C)CC(=O)C(CCCN2C(=O)c3ccccc3C2=O)C(=O)C1 | -15.2 |
| CCC1=Nc2cc(C(=O)N3CCCCC3)ccc2Sc2ccc(C)cc21 | 11.8 |
| Cc1ccc(Cc2c(C)nc3nc(SCC(=O)NCCN4CCOCC4)nn3c2C)cc1 | -0.464 |
| Cc1ccc(CN2CC(C(=O)NCCCSc3ccccc3)CC2=O)cc1 (stereo not drawn) | 13.3 |
| C/C(=N\NC(=O)c1nnn(-c2nonc2N)c1-c1ccccc1)c1cccnc1 | 14.1 |
| COc1ccc(N2C(=O)c3ccc(C(=O)Nc4cc(OC)ccc4OC)cc3C2=O)cc1 | 16.6 |
| Cc1ccc(OCC(O)CNC2CCCC2)cc1C.Cl (stereo not drawn) | 8.86 |
| CC1CN(C/C(=N\O)C23CC4CC(CC(C4)C2)C3)CC(C)O1 (stereo not drawn) | 12.3 |
| O=C(O)CCCC(=O)N1CCN(c2nc(-c3ccccc3)c3ccccc3n2)CC1 | 7.45 |
| O=C(O)c1ccccc1CSc1nnc2c(n1)[nH]c1ccccc12 | 11.4 |
| O=C(CSc1nc2scc(-c3ccccc3)c2c(=O)[nH]1)NCCc1ccccc1 | 10.2 |
| CCN(CC(=O)Nc1ccc([N+](=O)[O-])cc1OC)CC(=O)NC(C)(C)C | 2.84 |
| CC1=Nc2ncnn2C(c2ccccc2)/C1=N\O (stereo not drawn) | 3.7 |
| CN1C(=S)N(c2ccccc2)C(=O)/C1=C/c1cccs1 | -1.17 |
| Cc1cc(Cl)ccc1OCC(=O)N1CCN(C)CC1 | 7.84 |
| CCCC[n+]1ccn(C2=C([O-])c3ccccc3C(=O)/C2=N\S(=O)(=O)c2ccccc2)c1 | 10.2 |
